The text below walks through data of the RNAGym collection of RNA variant scans (doi:10.1093/nar/gkz1192).

B1: CPEB3 Ribozyme (parent)
chain: UAACAGGGGGCCACAGCAGAAGCGUUCACGUCGCAGCCCCUGUCAGAUUCUGGUGAAUCUGCGAAUUCUGCUGUAUAUCUC

Read counts are not given, so values of variants with three or more changes are uncertain.

In this series the parent is B1. The series can be described thus: self-cleavage, relative activity (ratio to wild type); higher = more cleavage; in vitro, sequencing. In a few lines:
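Relative activity was defined as the cleaved/total read fraction for a variant divided by the same fraction for the unmutated ribozyme. CPEB3 self-cleaving ribozyme libraries were made by rounds of error-prone PCR, barcoded, and transcribed in vitro with T7 RNA polymerase for 5 hours at 37°C, and cleavage ran through transcription plus a 15 min DNase I step before EDTA. Illumina sequencing of template-switched reverse transcripts gave the reads, and DNA sequencing mapped the barcodes. Averages come from three batches, using variants with at least 5 reads.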
Take A15U A20U C23U U25C U67A: the self-cleavage worked out at 0.06.
Consider A15U A20G G33U U51C G70A, for which the self-cleavage was 0.23.
With A15U C38A U43C A56C C59A, the self-cleavage is 0.25.
Take A15U A35U U41C A45U U54A U74A: the self-cleavage was found to be 0.17.
The figure for A15U A21G G30A C59U U72C is 0.07; for A15G U43A U48C it is 0.29.
As for A15U A35C U41C U78C, the self-cleavage stood at 0.57.
The figure for A15U A28G C59A U74C A75C is 0.09; for A15U A18U U31C C71A U74A A75U it is 0.1.
The figure for A15U A18G A21G U25C C27G U60C A75G is 0.03; for A15U A28G U76C U78C it is 0.15; for A15U A21G U74C it is 0.32.
Regarding A15G U49C A64G A77G, the self-cleavage worked out at 0.05.
The figure for A15U A45U U49A A64G U66C U74C A75G is 0.04; for A15G U49C U80C it is 0.35.
In the case of A15U A45G U51C G73A, the self-cleavage turned out to be 0.84.
Consider A15G U43C U54G U58C U74C U80C, for which the self-cleavage is 0.61.
The figure for A15G U43C G63U U76C A77G is 0.9; for A15U A28U U69G it is 0.11; for A15U G36C U48C A65G it is 0.06.
With A15U A18U U26G U49A A65U U69C, the self-cleavage was found to be 0.11.
The figure for A15U A20U A56U U72A is 0.07; for A15G U51A U72A it is 0.55; for A15U A21G U58A U69A U72G it is 0.07.
Take A15U G36U C40U A45C A65G U72C U80C: the self-cleavage came to 0.
For the variant A15U A20C U31C A45U U51A U78C, the self-cleavage was found to be 0.06.
On to A15U A21G U31A U66C, for which the self-cleavage was determined as 0.53.
For A15G U72A U74C A77U, the self-cleavage turned out to be 0.27.
The figure for A15U G33A A56G is 0.17; for A15U A28U A35U U80C it is 0.49; for A15U A21G A28G it is 0.11.
The figure for A15U A28G U31C G42A A47G A56G is 0.13; for A15U A45G U78A it is 0.41.
For the variant A15G U41C A65G, the self-cleavage is 0.33.
The figure for A15U A35G A56U A57U U66C is 0.53.
Take A15U C29G U51A A56G U66C: the self-cleavage turned out to be 0.07.
The figure for A15U A57G U60A is 0.15.
In the case of A15G U54C U69A U78C, the self-cleavage worked out at 0.22.
In the case of A15U A21G U54C A56G, the self-cleavage came to 0.2.
Take A15U G22U U69C: the self-cleavage turned out to be 0.08.
The figure for A15U A64U A65G U72A U78C is 0.08; for A15G U48C U54C A57G it is 0.98.
The figure for A15U A20G U54G A64G U78C is 0.11.
The figure for A15U A18G U41C is 0.21; for A15U C50A C71U it is 0.05.
Regarding A15U A20G A56U, the self-cleavage was 0.17.
For the variant A15U C37U U43C U76C, the self-cleavage stood at 0.34.
Turning to A15G U60A U67G U72A, the self-cleavage is 0.16.
The figure for A15G U43A U54C A64G is 0.33; for A15U A21G A56G U60C C71U it is 0.07; for A15U A18U C50U U54C U60A U72C it is 0.1.
For A15U A35C A57U U72C, the self-cleavage was 0.3.
The figure for A15G U41C G53A A64U is 0.21; for A15U A18G C29U U51C U58A it is 0.09.
Regarding A15G U76C A77U, the self-cleavage came to 0.6.
The figure for A15U C23G U51C A57G A64C is 0.08; for A15G U51C U54A A57G A77G it is 0.81; for A15U C34A A35U it is 0.09.
The figure for A15U C23U U49C is 0.18; for A15U A20U U31A U72G U74C it is 0.06.
For the variant A15U A21G G33A U66C U69C U72C, the self-cleavage amounted to 0.06.
Turning to A15U A21G U31A, the self-cleavage was found to be 0.35.
The figure for A15U A35U A47G U58C U78C is 0.44.
The figure for A15G U72C C79G is 1.27; for A15U A21U U26C C38A U41C it is 0.3; for A15U A21G U25C A47G G63U it is 0.06.
The figure for A15U A28G C40U is 0.2.
Take A15G U49A A64G U67G: the self-cleavage came to 0.19.
As to A15U A28G U54C G70A U76C U80C, the self-cleavage was found to be 0.05.
The figure for A15G U41A U54A is 0.13; for A15U A35U A45G A64U it is 0.26.
The figure for A15U A20U U67A U74C is 1.16; for A15G U69A G73A U80G it is 0.51; for A15U A21U U49C A64G U69A it is 0.07.
Take A15U A18U U49C A64G: the self-cleavage was 0.24.
The figure for A15U A45G G53A C59A A75U is 0.13; for A15G U43A U54C A65G it is 0.24.
The figure for A15U A21U U31C G36A U41A A45G is 0.05; for A15U A20U C32U U48C U80C it is 0.14.
For the variant A15G U49A A64G C81U, the self-cleavage stood at 0.32.
Turning to A15G U43C U58A U78C, the self-cleavage turned out to be 0.07.
In the case of A15G U60C U67C, the self-cleavage is 0.13.
Regarding A15G U60C U67A, the self-cleavage was found to be 0.26.
The figure for A15G U60C A64G A75U is 0.27.
As to A15U C37U U41A, the self-cleavage was 0.15.
With A15U A28C A64G, the self-cleavage stood at 0.18.
For the variant A15G U49C U60C, the self-cleavage turned out to be 0.17.
The figure for A15U A57G U72A is 0.91; for A15G U48C C59A it is 0.13; for A15U C29U U60C U72C U78A it is 0.04.
On to A15U G22U U26C U49C U60C U67A, for which the self-cleavage amounted to 0.14.
The figure for A15U A18U U54A C79A is 0.12; for A15U A20G A64G it is 0.22; for A15G U67C U76A it is 0.13.
As for A15G U60G U74C, the self-cleavage was 0.35.
The figure for A15U C29G U31A A65G is 0.18.
The figure for A15U C32A A47G U66C U67C is 0.13; for A15U G24A U26C U43C A65G it is 0.06.
As to A15U A18G U43C A56G A64U U67C, the self-cleavage came out at 0.1.
The figure for A15U C29U U67C U72C is 0.1; for A15U A28G A35U U48C U51C it is 0.09.
Take A15U A57G A64G: the self-cleavage is 0.32.
The figure for A15G U48C C50U is 0.19; for A15U A35U U76C U78C it is 0.57; for A15U A20U U31C A35G U67A U76C it is 1.26.
The figure for A15G U41C U66C U78C is 0.27.
Regarding A15G U41C U58C G70A, the self-cleavage stood at 0.14.
The figure for A15U A18U C27U U54A is 0.13; for A15U A20G G22U it is 0.23; for A15G U41C U66C U69C it is 0.27.
For the variant A15U A21G U54C, the self-cleavage was found to be 0.34.
The figure for A15G U54C A56G U58C is 0.12.
As for A15U G16A U26A, the self-cleavage was found to be 0.5.
Regarding A15U G52A U78A, the self-cleavage is 0.75.
In the case of A15U A18G A21G A47G U60C U72C, the self-cleavage stood at 0.
Regarding A15U A18C A21G, the self-cleavage was determined as 0.33.
The figure for A15U C23A U31G is 0.45; for A15U A45G A47G it is 0.29; for A15U A28U A64G U67G it is 0.08.
The figure for A15U A45C U49C A64G is 0.02.
The figure for A15U A18G U48A U66C A75G is 0.17; for A15U A18U U25C U49C U78C it is 0.07.
For A15U A64U U72C U74C, the self-cleavage is 0.11.
As to A15U A35U U54A U78C, the self-cleavage came to 0.49.
The figure for A15U A18U U51C U72A is 0.18; for A15U G16U U25C U41C U54C it is 0.09; for A15U A35G U54C G63A A65C it is 0.65.
The figure for A15U A35G U41A A56G C62U U78C is 0.05; for A15G U41G A45U A56C U69A it is 0.07.
Turning to A15U A18G U69C, the self-cleavage amounted to 0.8.
The figure for A15U C17U U43A is 0.34; for A15U A45G C71U U80C it is 0.11; for A15U A18U A47G it is 0.14.
A15U A21G U69C U74C: the self-cleavage was found to be 0.26.
As to A15U A57G A64G U69C U72C, the self-cleavage was found to be 0.21.
The figure for A15U A20C U60C is 0.14.
The figure for A15U C38U G73A is 1.28.
The figure for A15U A20G U26C U49C U72C is 0.06; for A15U C38A U54A it is 0.13; for A15U A18U U25G it is 0.43.
In the case of A15G U43C A56U U67A U74A, the self-cleavage is 0.13.
Regarding A15U A45G U69C, the self-cleavage came out at 0.14.
The figure for A15U A35G U54C is 1.27; for A15U A20U U43G it is 0.16; for A15U A28U U41A A45U U66A C68U it is 0.1.
Turning to A15G U69A U76C, the self-cleavage was 0.4.
Take A15U A18G A47G: the self-cleavage was found to be 0.2.
The figure for A15U G30C A35U U41A is 0.06.
As to A15U A21G U69A, the self-cleavage turned out to be 0.16.
With A15U A18G A20G, the self-cleavage worked out at 0.46.
The figure for A15G U43C G53U C71A is 0.15; for A15G U51A G53A A57G it is 0.64.
For A15G U48C A57G, the self-cleavage is 0.98.
A15U A20U U25A A35G: the self-cleavage is 0.09.
Regarding A15U G24A U31C U41A U54A A56G U78A, the self-cleavage came to 0.08.
Take A15U A20U A65G A77C: the self-cleavage was found to be 0.17.
The figure for A15U A45G A65G U69A is 0.18; for A15U A56G A64G U69A it is 0.1; for A15U C32U U58C U66C it is 0.08.
Consider A15U C27U A45G U51G G63A, for which the self-cleavage worked out at 0.08.
Turning to A15G U43C A56G U69C U78C, the self-cleavage was 0.15.
As to A15U A18U U60C U72C, the self-cleavage was 0.16.
As to A15U A21G U41C U51A U54C A56G U72A, the self-cleavage was 0.15.
For the variant A15U A20G C62U C71G, the self-cleavage turned out to be 0.07.
Consider A15G U48G A64G, for which the self-cleavage was 0.28.
Take A15G U58G A65G U69C: the self-cleavage worked out at 0.23.
The figure for A15U C38U C68U U72C is 0.26.
